Laboratory results from PubChem BioAssay AID686971 (National Center for Advancing Translational Sciences (NCATS), 2013).
Among all 360,000 compounds or so, about 7,500 (2.1%) were called active. Inconclusive results, whose numbers are uncertain, are shown with a selection of clear calls. Calls follow the shape of the dose curve; as a rule, active = well fitted cell-killing curve with a large enough effect; inconclusive = small, poorly fitted or top-dose-only effect, or effect the other way, or another doubt; inactive = no such curve, though single readings can be large or run the other way. Potencies of inconclusive entries are left out as doubtful fits.

Experiment: qHTS for induction of synthetic lethality in tumor cells producing 2HG: qHTS for the HT-1080-IDH1KD cell line;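 as to activity, negative = toxicity: 0% = DMSO wells and -100% = cell-free medium wells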
Settings: HT-1080 IDH1 knockdown viability, ATP luminescence, 48 h; activity, negative = toxicity: at 46.1 µM (top of the series) unless noted
Summary of the method: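 Knockdown cells (IDH1KD HT-1080) received compounds 2 h after plating at 750 cells/well and were kept 48 h at 37 °C in 5% FBS RPMI. A CellTiter-Glo luminescence read gave % activity for curve fitting.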
Potency is read from the fitted curve at half-maximal effect; tags tell the direction and shape of the fitted curve.

| Compound | Potency | activity, negative = toxicity |
| --- | --- | --- |
| CCOc1ccccc1-c1ccc(C(=O)NCc2ccc(Cl)cc2)o1 | inactive | – |
| COc1ccc(-c2nnc(CSc3nc4ccccc4c(=O)n3CC(C)C)o2)cc1OC | inconclusive [cytotoxic, single point] | – |
| Cc1ccc(NC(=O)c2cccc(S(=O)(=O)N3CCN(c4ccc(F)cc4)CC3)c2)nc1 | inconclusive [cytotoxic, single point] | – |
| COc1ccccc1-n1c(C)nnc1SCC(=O)NCc1ccccc1 | inactive | – |
| CC(=O)NC(c1ccc(C)cc1)c1cc(Cl)c2cccnc2c1O (stereo not drawn) | inconclusive [cytotoxic, partial curve] | – |
| Cc1cc(NC(=O)c2ccc3[nH]c(C)c(C)c3c2)ccn1 | inconclusive [cytotoxic, single point] | – |
| N=c1c2c(-c3ccccc3)c(-c3ccccc3)n(Cc3ccccc3)c2ncn1CCO | inconclusive [cytotoxic, partial curve] | – |
| O=S(=O)(c1ccc(NC2CCCCC2)cc1)N1CCOCC1 | inconclusive [cytotoxic, single point] | – |
| O=C1CCCN1C(=O)COc1ccccc1[N+](=O)[O-] | inactive | – |
| Cc1ccc(-c2noc(-c3cccs3)n2)cc1 | inactive | – |
| Cc1ccc(S(=O)(=O)N[C@H](C(=O)NC2CCC(C)CC2)C(C)C)cc1 (stereo partly drawn) | inactive | – |
| O=[N+]([O-])c1ccc(-[n+]2ccc3ccccc3c2)c([N+](=O)[O-])c1 | inconclusive [cytotoxic, single point] | – |
| Cc1ccc(C(=O)N/N=C/c2ccc(-c3cccc(Cl)c3)o2)cn1 | inconclusive [cytotoxic, single point] | – |
| CCN(CC)CC(O)COc1ccc2c(c1)c(C(C)=O)c(C)n2-c1ccccc1 (stereo not drawn) | inconclusive [cytotoxic, single point] | – |
| CCc1nc(Cl)c(C#N)c2c1CCCC2 | inactive | – |
| CC(Sc1nc2cc([N+](=O)[O-])ccc2n1-c1ccc(F)cc1)C(=O)NCc1ccc2c(c1)OCO2 (stereo not drawn) | inactive | – |
| Cc1ccc(CN2C(=O)c3ccccc3NC2c2cc(Br)ccc2O)cc1 (stereo not drawn) | inconclusive [cytotoxic, single point] | – |
| Cc1[nH]n(-c2ccccc2)c(=O)c1C=Nc1ccc(S(=O)(=O)Nc2nccs2)cc1 | inactive | – |
| OC1NC(=S)N(c2ccccc2)C1O (stereo not drawn) | inactive | – |
| CCOC(=O)[C@]12CCCC=C1N(CCC1=CCCCC1)C(=O)[C@H](CC(=O)NCCCCc1ccccc1)C2 | inconclusive [cytotoxic, single point] | – |
| Cc1c(C(=O)O)cccc1-c1ccc(/C=N/Nc2ccc(Br)cc2)o1 | – | inconclusive: -33.3% [cytotoxic] |
| Cc1ccc(NC(=O)CSc2nc(N)c3cc4c(nc3n2)CCCC4)cc1 | inconclusive [cytotoxic, single point] | – |
| Cc1ccc(-c2nnn(CC(=O)N(c3ccccc3)C(C(=O)NC(C)(C)C)c3cccs3)n2)o1 (stereo not drawn) | inconclusive [cytotoxic, partial curve] | – |
| COc1cc(NC(=O)COc2ccccc2[N+](=O)[O-])ccc1NC(=O)c1cccs1 | inconclusive [cytotoxic, single point] | – |

| Compound | Potency | activity, negative = toxicity |
| --- | --- | --- |
| CCCN1CCC(=NNc2ccc(S(=O)(=O)N3CCOCC3)cc2[N+](=O)[O-])CC1 | active: 14.6 µM | – |
| COc1cccc(C(=O)COc2ccc3c(C)cc(=O)oc3c2)c1 | inconclusive [cytotoxic, single point] | – |
| O=C(Nc1cccc(-c2cccc(Cl)c2)c1)C1CCN(C2CCC2)CC1 | inconclusive [cytotoxic, single point] | – |
| Cc1cccc(NC(=O)NNC(=O)c2cc(-c3ccccc3Cl)nc3ccccc23)c1 | inconclusive [cytotoxic, single point] | – |
| O=C1NC[C@H](CCCCN2C[C@H](Cc3ccc(O)cc3)N(Cc3ccccc3)C(=O)C2=O)N(CC2CCCCC2)C1=O | inactive | – |
| CC[C@H](C)C(=O)O[C@H]1CCC=C2C=C[C@H](C)[C@H](CC[C@@H]3C[C@@H](O)CC(=O)O3)[C@H]21 | active: 7.31 µM | – |
| Brc1ccc(OCCOc2cccc3cccnc23)cc1 | inactive | – |
| Cn1c(=O)c(Nc2ccc(O)cc2)c2c3c(cccc31)C(=O)c1ccccc1-2 | inactive | – |
| CCOC(=O)N1CCc2cc(OC)c(OC)c3c2c1cc1cc(OC)c(OC)cc13 | active: 16.4 µM | – |
| Cc1ccc(C(C)C)c(OCc2nn(CC(=O)c3ccc(Cl)cc3)c3[n+]2CCCCC3)c1 | active: 18.4 µM | – |
| CCCCCCc1nc(C(N)=O)c2[nH]c(=O)n(-c3ccc(OC)cc3OC)c2n1 | inconclusive [cytotoxic, single point] | – |
| COC(=O)c1sccc1S(=O)(=O)NC(C)c1cnn(-c2ccc(OC)cc2)c1C (stereo not drawn) | inactive | – |
| CN(CC(=O)Nc1ccc(Cl)cc1)C(=O)CCC1CCCC1 | inactive | – |
| Cc1cc(C)nc(NC(=O)/C=C/c2ccc(Cl)cc2Cl)c1 | inactive | – |
| Clc1ccc(CSc2nnc(-c3ccccn3)n2Cc2cccs2)cc1Cl | inconclusive [cytotoxic, single point] | – |
| CC(C)(C)N(CC#CCC1(O)c2ccccc2-c2ccccc21)CCO | inactive | – |
| C[N+]1(CC(=O)Nc2ccccc2Cl)CCN(C(=O)c2cccs2)CC1 | inactive | – |
| CN(Cc1ccccc1)c1ncnc2sccc12 | inconclusive [cytotoxic, partial curve] | – |
| N#CC1=C(N)Oc2cc(N)ccc2C1c1ccc(F)cc1 (stereo not drawn) | inconclusive [cytotoxic, single point] | – |
| O=C(CNc1ccccc1F)Nc1cc(S(=O)(=O)N2CCCCC2)ccc1Cl | inactive | – |
| O=C(NC(Cc1ccccc1)C(=O)N1CCCCC1)c1ccccc1 (stereo not drawn) | inactive | – |
| CCOC(=O)c1c(-n2c(C)cc(C=O)c2C)sc2c1CCCC2 | inconclusive [cytotoxic, single point] | – |
| O=C(CSc1ncccc1-c1nc2ccccc2[nH]1)Nc1ccc2c(c1)OCCO2 | inactive | – |
| CCN1CCN(c2ccc(S(=O)(=O)N3CCCCC3)cc2NC(=O)c2cccc(Cl)c2)CC1 | inactive | – |
